Assay results as given in the supplement of paper PMC9174493.
This is one part of the list. Single values of this set are uncertain. Values with irradiation are relative to irradiated vehicle.

System: A549-Dual
Test: NF-kB reporter (SEAP) activity, viability-corrected, relative to vehicle (fold change vs vehicle); higher = more activation of STING-IRF / NF-kB immune response reporter
Settings: 10 µM; irradiation: 8 Gy/4 fr
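Further: viability correction based on the alamar blue assay, with concentrations leaving 10% survival or less dropped.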

| Compound | NF-kB reporter |
| --- | --- |
| COc1ccc(CC2c3cc(OC)c(OC)cc3CC[N+]2(C)CCC(=O)OCCCCCOC(=O)CC[N+]2(C)CCc3cc(OC)c(OC)cc3C2Cc2ccc(OC)c(OC)c2)cc1OC.O=S(=O)([O-])c1ccccc1.O=S(=O)([O-])c1ccccc1 (stereo not given) [Cisatracurium Besylate] | 0.627 |
| CNCCC(Oc1cccc2ccccc12)c1cccs1 (stereo not given) [Duloxetine] | 0.879 |
| NC(Cc1cc(I)c(Oc2ccc(O)c(I)c2)c(I)c1)C(=O)O (stereo not given) [Triiodothyronine] | 1.18 |
| Oc1cc(O)c2c(c1)OC(c1ccc(O)c(O)c1)C(O)C2 (single isomer, unassigned; (+)) [(+)-Catechin hydrate] | 0.863 |
| CC1CCC2C(C)C(O)OC3OC4(C)CCC1C32OO4 (stereo not given) [Dihydroartemisinin (DHA)] | 0.93 |
| COc1ccccc1OCC(O)CO (stereo not given) [Guaifenesin] | 0.515 |
| NC(=O)c1ncn(C2OC(CO)C(O)C2O)n1 (stereo not given) [Ribavirin] | 0.746 |
| COC(=O)N/N=C/c1c[n+]([O-])c2ccccc2[n+]1[O-] [Carbadox] | 0.638 |
| C=C(C)C1CC=C(C)CC1 [(S)-(-)-Limonene] | 1.05 |
| COc1cc(C(=O)NCc2ccc(OCCN(C)C)cc2)cc(OC)c1OC.Cl [Tribenzagan Hydrochloride] | 0.973 |

Same assay, conditions: 10 µM; irradiation: none

| Compound | NF-kB reporter |
| --- | --- |
| CC(C)NCC(O)c1ccc(O)c(O)c1.CC(C)NCC(O)c1ccc(O)c(O)c1.O.O.O=S(=O)(O)O (stereo not given) [Isoproterenol sulfate dihydrate] | 1.94 |
| CC(=O)O.N=C(N)NCCCC(N)C(=O)NC(CCCNC(=N)N)C(=O)N1CCCC1C(=O)N1CC(O)CC1C(=O)NCC(=O)NC(Cc1cccs1)C(=O)NC(CO)C(=O)N1Cc2ccccc2CC1C(=O)N1C(C(=O)NC(CCCNC(=N)N)C(=O)O)CC2CCCCC21 (stereo not given) [Icatibant Acetate] | 0.854 |
| O=C1C(O)=C(C2CCC(c3ccc(Cl)cc3)CC2)C(=O)c2ccccc21 (stereo not given) [Atovaquone] | 1.63 |
| Cc1ncc(COP(=O)([O-])[O-])c(CN(CCN(CC(=O)O)Cc2c(COP(=O)([O-])O)cnc(C)c2O)CC(=O)O)c1O.[Mn].[Na+].[Na+].[Na+] [Mangafodipir Trisodium] | 0.484 |
| OC1COC2C(O)COC12 (stereo not given) [Isosorbide] | 0.99 |
| Nc1nc(=O)n(C2CSC(CO)O2)cc1F (stereo not given) [Emtricitabine] | 0.782 |
| CN(C)CC/C=C1/c2ccccc2COc2ccc(CC(=O)O)cc21.Cl [Olopatadine HCl] | 0.977 |
| CCC1OC(=O)C(C)C(OC2CC(C)(OC)C(O)C(C)O2)C(C)C(OC2OC(C)CC(N(C)C)C2O)C(C)(O)CC(C)C2NC(COCCOC)OC(C2C)C1(C)O (stereo not given) [Dirithromycin] | 0.925 |
| CCN(CC)C(=O)Nc1ccc(OCC(O)CNC(C)(C)C)c(C(C)=O)c1.Cl (stereo not given) [Celiprolol hydrochloride] | 0.966 |
| Cl.OC(CCN1CCCC1)(c1ccccc1)C1CCCCC1 (stereo not given) [Procyclidine HCl] | 0.829 |
| C#CC1(O)CCC2C3CCc4cc(OC)ccc4C3CCC21C (stereo not given) [Mestranol] | 1.18 |
| Cl.N[C@@H](CS)C(=O)O [L-Cysteine HCl] | 0.791 |
| OCC1OC(OCC2OC(OC3(CO)OC(CO)C(O)C3O)C(O)C(O)C2O)C(O)C(O)C1O (stereo not given) [Raffinose] | 0.478 |
| CN(C)CCOc1ccc(/C(=C(/CCCl)c2ccccc2)c2ccccc2)cc1.O=C(O)CC(O)(CC(=O)O)C(=O)O [Toremifene Citrate] | 0.811 |
| COC1(NC(=O)C(C(=O)[O-])c2ccc(O)cc2)C(=O)N2C(C(=O)[O-])=C(CSc3nnnn3C)COC21.[Na+].[Na+] (stereo not given) [Latamoxef sodium] | 0.909 |
| CC(CCC(=O)O)C1CCC2C3C(O)CC4CC(O)CCC4(C)C3CC(O)C12C (stereo not given) [Cholic acid] | 0.708 |
| O=C(O)CCC(=O)Nc1ccc(S(=O)(=O)Nc2nccs2)cc1 [Succinylsulfathiazole] | 0.883 |
| CCn1cc(C(=O)O)c(=O)c2cnc(N3CCCC3)nc21 [Piromidic Acid] | 0.966 |
| O.O.O.O.O=P([O-])(O)C(Cl)(Cl)P(=O)([O-])O.[Na+].[Na+] [Clodronate disodium tetrahydrate] | 1.02 |
| COCC(=O)Nc1cc(Sc2ccccc2)ccc1N=C(NC(=O)OC)NC(=O)OC [Febantel] | 0.855 |

| Compound | NF-kB reporter |
| --- | --- |
| Oc1c(Cl)cc(Cl)cc1Sc1cc(Cl)cc(Cl)c1O [Bithionol] | 2.7 |
| CC(CCC(=O)O)C1CCC2C3C(O)CC4CC(O)CCC4(C)C3CCC12C (stereo not given) [Ursodiol] | 0.835 |
| CN(C)c1ccc2nc3ccc(=[N+](C)C)cc-3sc2c1.[Cl-] [Methylene Blue] | 2.52 |
| Clc1ccccc1C(c1ccccc1)(c1ccccc1)n1ccnc1 [Clotrimazole] | 0.767 |
| CC12CC3(O)OC(O1)C1(COC(=O)c4ccccc4)C3CC21OC1OC(CO)C(O)C(O)C1O (stereo not given) [Paeoniflorin] | 0.563 |
| Cl.Nc1c(Br)cc(Br)cc1CNC1CCC(O)CC1 (stereo not given) [Ambroxol HCl] | 0.941 |
| COCC1=C(C(=O)OC(C)OC(=O)OC(C)C)N2C(=O)C(NC(=O)/C(=N\OC)c3csc(N)n3)C2SC1 (stereo not given) [Cefpodoxime proxetil] | 1.1 |
| Cc1cc(NS(=O)(=O)c2ccc(N)cc2)no1 [Sulfamethoxazole] | 1.08 |
| CN(C)CCc1c[nH]c2ccc(CC3COC(=O)N3)cc12 (stereo not given) [Zolmitriptan] | 0.84 |
| CCC1OC(=O)C(C)C(OC2CC(C)(OC)C(O)C(C)O2)C(C)C(OC2OC(C)CC(N(C)C)C2O)C(C)(O)CC(C)C(=O)C(C)C(O)C1(C)O.N#CS (stereo not given) [Erythromycin thiocyanate] | 0.889 |
| COc1ccc(CC2c3cc(OC)c(OC)cc3CC[N+]2(C)CCC(=O)OCCCCCOC(=O)CC[N+]2(C)CCc3cc(OC)c(OC)cc3C2Cc2ccc(OC)c(OC)c2)cc1OC.O=S(=O)([O-])c1ccccc1.O=S(=O)([O-])c1ccccc1 (stereo not given) [Cisatracurium Besylate] | 0.745 |
| CNCCC(Oc1cccc2ccccc12)c1cccs1 (stereo not given) [Duloxetine] | 0.761 |
| NC(Cc1cc(I)c(Oc2ccc(O)c(I)c2)c(I)c1)C(=O)O (stereo not given) [Triiodothyronine] | 0.457 |
| Oc1cc(O)c2c(c1)OC(c1ccc(O)c(O)c1)C(O)C2 (single isomer, unassigned; (+)) [(+)-Catechin hydrate] | 0.534 |
| CC1CCC2C(C)C(O)OC3OC4(C)CCC1C32OO4 (stereo not given) [Dihydroartemisinin (DHA)] | 1.48 |
| COc1ccccc1OCC(O)CO (stereo not given) [Guaifenesin] | 0.661 |
| NC(=O)c1ncn(C2OC(CO)C(O)C2O)n1 (stereo not given) [Ribavirin] | 1.09 |
| COC(=O)N/N=C/c1c[n+]([O-])c2ccccc2[n+]1[O-] [Carbadox] | 0.593 |
| C=C(C)C1CC=C(C)CC1 [(S)-(-)-Limonene] | 0.749 |
| COc1cc(C(=O)NCc2ccc(OCCN(C)C)cc2)cc(OC)c1OC.Cl [Tribenzagan Hydrochloride] | 0.826 |
